These are yes or no findings as the source states them, for the method shown. For part of these data: Binding seen in cells or lysates may run through a third protein. Some entries that bind do so weakly or less than the wild type. For part of these data: Sequences can lack the tags named with a protein.
What was measured:
[1] = target: Abi-1 (full coding sequence) fused to the GAL4 DNA binding domain (UniProt Q9QZM5); assay: two-hybrid; Abi-1 full coding sequence on the GAL4 DNA binding domain (pAS2-1) as bait, human fetal brain cDNA library in pACT2 as prey; yeast strains Y187 and AH109; growth without histidine and X-gal filter-lift; clones retested after re-transformation
[2] = target: T1, AbiSH3-GFP (Abi-1 SH3 domain, aa417–476) (UniProt Q9QZM5); assay: co-IP; lysate of cotransfected Cos7 cells; GFP fusion precipitated with anti-GFP microbeads; immunoblot with anti-Myc (Fig. 1D-II) or anti-hnRNPK (Fig. 1D-III)
T1 sequence: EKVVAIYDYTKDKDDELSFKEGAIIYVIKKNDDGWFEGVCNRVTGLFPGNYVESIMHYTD

Protein sequences, listed by entry. Tags and fused reporters are not part of them. Lines headed by an entry give the natural chain unless they say otherwise; changes in a name come on top. Chains listed by the source or under a name are the forms on record and can include a tag or linker. Residues count along the entry.
hnRNPK-K2-GFP (aa150–337) (P61978, residues 150-337): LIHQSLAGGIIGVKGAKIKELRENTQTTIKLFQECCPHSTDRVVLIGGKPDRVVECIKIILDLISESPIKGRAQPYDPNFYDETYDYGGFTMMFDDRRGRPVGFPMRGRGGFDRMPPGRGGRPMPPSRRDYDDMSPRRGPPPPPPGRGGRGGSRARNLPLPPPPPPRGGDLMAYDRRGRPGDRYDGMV
hnRNPK prey clone aa248–464 (P61978-2, form named): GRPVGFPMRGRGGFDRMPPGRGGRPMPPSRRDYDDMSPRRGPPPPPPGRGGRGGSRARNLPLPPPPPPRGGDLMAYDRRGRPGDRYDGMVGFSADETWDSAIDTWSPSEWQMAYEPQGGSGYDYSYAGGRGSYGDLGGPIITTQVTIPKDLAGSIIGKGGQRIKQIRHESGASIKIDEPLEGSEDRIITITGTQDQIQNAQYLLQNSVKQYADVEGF
hnRNPK-K3-GFP (aa337–464) (P61978-2, form named): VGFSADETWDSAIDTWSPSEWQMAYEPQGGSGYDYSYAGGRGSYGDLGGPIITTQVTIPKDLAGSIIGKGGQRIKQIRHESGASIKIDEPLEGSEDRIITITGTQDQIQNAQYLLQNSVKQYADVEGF
hnRNPK prey clone aa267–464 (P61978-2, form named): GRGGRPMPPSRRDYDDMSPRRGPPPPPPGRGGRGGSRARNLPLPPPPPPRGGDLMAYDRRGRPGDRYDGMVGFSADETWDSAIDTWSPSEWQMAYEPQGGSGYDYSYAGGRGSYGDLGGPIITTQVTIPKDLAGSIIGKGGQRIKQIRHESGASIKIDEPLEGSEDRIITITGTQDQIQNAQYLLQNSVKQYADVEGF

[3] = target: T2, AbiΔSH3-GFP (Abi-1 without the C-terminal SH3-domain, aa1–416) (UniProt Q9QZM5); assay: as above
T2 sequence: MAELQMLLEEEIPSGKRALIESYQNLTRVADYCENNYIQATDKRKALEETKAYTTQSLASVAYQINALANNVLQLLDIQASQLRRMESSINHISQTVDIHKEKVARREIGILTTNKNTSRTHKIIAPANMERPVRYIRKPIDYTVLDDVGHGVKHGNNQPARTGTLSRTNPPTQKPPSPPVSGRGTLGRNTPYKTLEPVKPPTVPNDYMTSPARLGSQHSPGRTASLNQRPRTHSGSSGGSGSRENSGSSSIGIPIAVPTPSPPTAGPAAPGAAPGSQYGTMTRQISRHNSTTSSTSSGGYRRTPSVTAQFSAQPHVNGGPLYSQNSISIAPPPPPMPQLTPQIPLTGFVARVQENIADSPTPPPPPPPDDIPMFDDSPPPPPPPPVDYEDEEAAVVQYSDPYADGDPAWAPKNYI

hnRNPK-K1-GFP (aa1–149) = hnRNPK-K1-GFP (aa1–149) (UniProt P61978); assay: as above
[4] = target: hnRNPK-K2-GFP (aa150–337) (UniProt P61978); assay: as above
[5] = target: hnRNPK-K3-GFP (aa337–464) (UniProt P61978); assay: as above
[6] = target: Abi-1-Myc (aa1–476; full-size Abi-1) (UniProt Q9QZM5); assay: co-IP; lysate of cotransfected Cos7 cells; Abi-1-Myc immobilised on anti-Myc microbeads on a column; immunoblot with anti-GFP
[7] = target: heterogeneous nuclear ribonucleoprotein K (hnRNPK), endogenous in brain (rat (endogenous in brain)) (UniProt P61980); assay: co-IP; endogenous proteins; hnRNPK antibody on magnetic microbeads, brain lysate and synaptosomal fraction; immunoblot with anti-Abi-1; control with unspecific IgG

hnRNPK prey clone aa248–464 (from UniProt P61978-2 248-464) (domain or fragment)
binding [1]: binds

hnRNPK-full-Myc (aa1–464; full-size hnRNPK fused to Myc) (from UniProt P61978-2 1-464)
binding [2]: binds | binding [3]: no binding

Abi-1-Myc (aa1–476; full-size Abi-1) (from UniProt Q9QZM5 1-476)
binding (hnRNPK-K1-GFP (aa1–149)): no binding | binding [4]: binds | binding [5]: no binding

hnRNPK-full-GFP (aa1–464; full-size hnRNPK fused to GFP) (from UniProt P61978-2 1-464)
binding [6]: binds

Abelson-interacting protein 1 (Abi-1), endogenous in brain (from UniProt Q9QZM5 1-476)
binding [7]: binds

hnRNPK prey clone aa267–464 (from UniProt P61978-2 267-464) (domain or fragment)
binding [1]: binds
